Screen size: about 310,000 compounds; about 2,200 (0.71%) showed an effect of 50% or more. Effects have a minus sign here. The list shows a part of the results.
These compounds were tested against human ether-à-go-go-related gene (hERG) potassium channel (human, UniProt Q12809) (assay: primary screen, population patch clamp on CHO cells stably expressing hERG).
Sequence of human ether-à-go-go-related gene (hERG) potassium channel (Q12809 whole entry, looked up): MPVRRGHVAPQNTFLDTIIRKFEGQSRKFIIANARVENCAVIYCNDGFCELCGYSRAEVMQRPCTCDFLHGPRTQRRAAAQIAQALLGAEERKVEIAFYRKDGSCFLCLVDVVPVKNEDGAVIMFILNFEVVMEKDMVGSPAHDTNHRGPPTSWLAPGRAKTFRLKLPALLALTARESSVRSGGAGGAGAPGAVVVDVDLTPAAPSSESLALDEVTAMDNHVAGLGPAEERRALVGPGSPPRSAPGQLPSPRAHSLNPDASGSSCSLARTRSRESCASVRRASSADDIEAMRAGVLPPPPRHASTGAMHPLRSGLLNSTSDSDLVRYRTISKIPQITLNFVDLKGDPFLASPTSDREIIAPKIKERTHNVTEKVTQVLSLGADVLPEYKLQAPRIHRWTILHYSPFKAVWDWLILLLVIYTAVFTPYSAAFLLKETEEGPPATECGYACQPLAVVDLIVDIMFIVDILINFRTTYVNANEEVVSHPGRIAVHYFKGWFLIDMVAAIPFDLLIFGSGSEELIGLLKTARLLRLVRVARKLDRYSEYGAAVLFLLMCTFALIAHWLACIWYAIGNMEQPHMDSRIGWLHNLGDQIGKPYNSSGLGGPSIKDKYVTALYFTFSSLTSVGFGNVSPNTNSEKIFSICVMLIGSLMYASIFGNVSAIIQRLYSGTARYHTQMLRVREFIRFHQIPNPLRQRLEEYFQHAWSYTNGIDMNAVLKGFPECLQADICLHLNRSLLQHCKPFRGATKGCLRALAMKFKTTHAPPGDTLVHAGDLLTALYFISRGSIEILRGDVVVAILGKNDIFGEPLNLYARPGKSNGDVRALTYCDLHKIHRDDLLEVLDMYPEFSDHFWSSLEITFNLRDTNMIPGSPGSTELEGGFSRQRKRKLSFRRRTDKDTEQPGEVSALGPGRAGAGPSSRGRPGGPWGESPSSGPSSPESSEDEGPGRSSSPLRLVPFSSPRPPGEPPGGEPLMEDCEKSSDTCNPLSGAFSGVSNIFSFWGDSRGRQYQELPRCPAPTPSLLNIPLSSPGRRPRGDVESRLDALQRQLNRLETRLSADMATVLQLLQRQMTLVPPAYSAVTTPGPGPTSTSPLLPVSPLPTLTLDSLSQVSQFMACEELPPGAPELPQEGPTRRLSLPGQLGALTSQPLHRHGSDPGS

Row | Structure (SMILES) | hERG current change (%, negative = inhibition) at 1uM [%]
1 | CCCCn1c(N)c(N(Cc2ccccc2OC)C(=O)CSCC(=O)Nc2cccc(C)c2)c(=O)[nH]c1=O | 9.61
2 | CS(=O)(=O)C1=C(O)C(=O)N(c2ccccc2)C1c1ccccc1 (stereo not drawn) | 12.5
3 | COc1cc2c(cc1OC)CN(Cc1ccc(C)cc1)CC2 | -6.85
4 | N#Cc1cccc(NC(=O)C2CCCN(C(=O)c3ccc(Cl)cc3)C2)c1 (stereo not drawn) | 4.5
5 | COc1cc(NC(=O)c2cccs2)cc(OC)c1 | -0.578
6 | Cn1c(=O)n(C)c2cc(S(=O)(=O)Nc3cc(Cl)ccc3O)ccc21 | 12.6
7 | CCn1c(SCC(=O)NC2CCCCC2)nnc1-c1cc2cccc(OC)c2o1 | 1.93
8 | O=C(c1csc2c1CCCC2)N1CCN(c2cccc(C(F)(F)F)c2)CC1 | 13.6
9 | CCC(=O)N1CCCc2cc(S(=O)(=O)N3CCN(c4ncccn4)CC3)ccc21 | 9.45
10 | O=C(Cn1cc(C(F)(F)F)cc(Cl)c1=O)NCc1ccc(F)cc1 | 11
11 | CCC1(c2ccc(F)cc2)NC(=O)N(CC(=O)N(C)C2CCS(=O)(=O)C2)C1=O (stereo not drawn) | 6.01
12 | Cn1c(NC(=O)c2cccs2)cc(=O)n(C)c1=O | 11.2
13 | COc1ccc(NC(=O)c2cc(-c3ccc(C)o3)nc3ccccc23)c(OC)c1 | 12.8
14 | CCc1[nH]nc(C(=O)N2CCCC(C(=O)c3cccc(OC(C)C)c3)C2)c1C (stereo not drawn) | 19.2
15 | O=C(Nc1ccc(N2CCN(c3ncccc3C(F)(F)F)CC2)nc1)c1cccs1 | 11.4
16 | Cc1oc2ccccc2c1CNC(=O)N(C)C | 15.7
17 | CCC1CCc2sc(C(=O)NCc3ccccn3)cc2C1 (stereo not drawn) | 10.8
18 | COc1ccccc1C1/C(=C(/O)c2ccc(Cl)cc2)C(=O)C(=O)N1CCN1CCOCC1 (stereo not drawn) | 12.4
19 | C[C@H](NC(=O)[C@@H]1Cc2ccccc2CN1)C(=O)NCC1CCC(C(=O)O)CC1.Cl (stereo partly drawn) | 5.5
20 | COc1ccc(CCNC(=O)C2CCCN(Cc3nc(-c4ccccc4C)oc3C)C2)cc1OC (stereo not drawn) | -2.12
21 | COc1ccc(CN2CC(=O)N(c3ccc(Cl)cc3)C2=S)cc1OC | 15.5
22 | COc1ccccc1CC(=O)Nc1cc2oc3ccccc3c2cc1OC | 16.4

Row | Structure (SMILES) | hERG current change (%, negative = inhibition) at 1uM [%]
23 | Cc1cccc(NC(=O)NCC(c2cccnc2)N2CCOCC2)c1 (stereo not drawn) | 9.82
24 | COc1ccccc1N1CCN(C(=O)CCCn2nc(C)c([N+](=O)[O-])c2C)CC1 | -10.4
25 | CSC1=NCCN1C(=O)c1c(F)cccc1F | 7.21
26 | O=c1c2cnn(-c3ccccc3)c2nc(-c2cccs2)n1-c1ccc(Cl)cc1 | 12
27 | Cc1ccc(S(=O)(=O)N2[C@@H](c3ccc(Cl)cc3)C(C(=O)O)=CC[C@H]2c2cccc(Cl)c2)cc1 | 12.8
28 | COC(=O)Cn1ncc(N2C3CC(CC(C)(C)C3)C2C)c(Cl)c1=O (stereo not drawn) | 0.459
29 | COc1ccc(CCNc2ccc(C(CC(N)=O)NC(=O)c3cc(C)cc(C)c3)cc2[N+](=O)[O-])cc1 (stereo not drawn) | 11
30 | CC(C)C[C@H](NP(=O)([O-])O[C@@H]1O[C@@H](C)[C@H](O)[C@@H](O)[C@H]1O)C(=O)N[C@@H](Cc1c[nH]c2ccccc12)C(=O)[O-].[Na+] | 5.52
31 | COc1ccc(F)c(CN2CCCC(CNS(=O)(=O)c3cccc4cccnc34)C2)c1 (stereo not drawn) | 14
32 | O=C(O)C1CCN(c2c([N+](=O)[O-])cc(C(F)(F)F)cc2[N+](=O)[O-])CC1 | 5.68
33 | O=C(O)C1CC=CCC1C(=O)NNc1c(Cl)cc(Cl)cc1Cl (stereo not drawn) | 9.44
34 | CC(=O)NC1=C(NC2CCS(=O)(=O)C2)C(=O)c2ccccc2C1=O (stereo not drawn) | 20.6
35 | COC(=O)c1cccc(Oc2cccc(C(F)(F)F)c2)n1 | 6.73
36 | CCCCc1nc2ccccc2c(NC(=O)CN2CCN(C)CC2)c1CCC.O=C(O)C(=O)O | -2.05
37 | COc1ccc(/C=C2\N=C(C)OC2=O)cc1OC(C)=O | 6.81
38 | NC(=O)NCCCC(=O)O | 9.76
39 | CC1CCN(CCc2nc3ccccc3[nH]2)CC1 | -33.4
40 | COc1ccc(NC(=O)CC2C(=O)NCCN2C(=O)Nc2ccc(C(F)(F)F)cc2)cc1 (stereo not drawn) | 15.4
41 | COc1cc(C(=O)NNC(=O)C2CCCC2)cc(OC)c1OC | 14.1
42 | CC(C)N(C(=S)NCc1ccccc1)c1ccccc1 | 7.04
43 | CCOC(=O)C1CCN(C(c2cc3c(C)ccc(C)c3[nH]c2=O)c2nnnn2C2CCCCC2)CC1 (stereo not drawn) | -0.367
44 | Cc1cc(-c2onc(C)c2C(=O)N/N=C/c2ccccc2)no1 | 11.4

Row | Structure (SMILES) | hERG current change (%, negative = inhibition) at 1uM [%]
45 | COc1cc(/C=N/NC(=O)c2cccc3ccccc23)ccc1OCC(N)=O | 6.89
46 | Cc1cc(C)n(C(=O)c2ccc(S(=O)(=O)N3CCCC3)cc2)n1 | 12.5
47 | O=C(O)COCC(=O)N1CCN(c2cc(C(F)(F)F)nc3ccccc23)CC1 | 18
48 | COc1ccc(NCc2nc3ccccc3n2CCOc2ccccc2)cc1 | -4.64
49 | CC(=O)c1ccc2c(c1)C1C=CCC1C(c1cc3c(cc1Br)OCO3)N2 (stereo not drawn) | 13.3
50 | O=C(CSc1nnc(-c2ccccc2)o1)c1nnc(-c2ccccc2)o1 | 14.5
51 | O=C1C2CC=C(Cl)CC2C(=O)N1CCC[n+]1cccc2ccccc21 (stereo not drawn) | 17.1
52 | CCOC(=O)CC(NC(=O)CCc1c(C)nc2nc(C)nn2c1C)c1ccc(OC(C)C)cc1 (stereo not drawn) | 4.88
53 | Cc1ncc(CO)c(/C=N/NC(=S)Nc2ccc(C(C)C)cc2)c1O | 12
54 | CN1C(=O)C(=Cc2ccccc2OCc2ccc(C(=O)O)cc2)C(=O)N(C)C1=O | 7.89
55 | CC1SCC(NC(=O)c2ccccc2Cl)CS1 (stereo not drawn) | 11
56 | CC(C)C[C@H](NC(=O)c1nc[nH]c1C(=O)NCC(=O)OC(C)(C)C)C(=O)OCc1ccccc1 | 12.9
57 | CCCN1CCC(=O)N([C@H](CN=[N+]=[N-])CC(C)C)CC1 | 11
58 | CCOC(=O)CNC(=O)/C=C/c1c(Cl)cccc1Cl | 11.1
59 | Cc1ccc(N=C2C(=O)Nc3ccc(Br)cc32)cc1 | 11.9
60 | Cc1ccn2c(NC3CCCCC3)c(C(C)C)nc2c1 | -6.2
61 | Cc1ccc(C(=O)N/C(=C\Cl)P(=O)(c2ccccc2)c2ccccc2)cc1 | 15.9
62 | COc1ccc(NC(=O)c2ccco2)cc1NC(=O)c1c(F)c(F)c(OC)c(F)c1F | 0.726
63 | c1cnc(-c2noc(CN3CCN(C4CCCC4)CC3)n2)cn1 | 11.7
64 | COc1cc(C(=O)NCc2nnc(SCC(=O)Nc3nccs3)o2)cc(OC)c1OC | 7.49
65 | CC(C)NC(=O)/C(C#N)=C/c1ccc2c(c1)OCCO2 | 6.31
66 | O=C(OC1CCCCC1=O)c1cccc(S(=O)(=O)NCc2ccccc2)c1 (stereo not drawn) | -1.88

Row | Structure (SMILES) | hERG current change (%, negative = inhibition) at 1uM [%]
67 | CS(=O)(=O)N1CCC(CO)(Cc2ccccc2C(F)(F)F)CC1 | 6.98
68 | Cc1cccc2cc(COC(=O)C3CCCCC3)c(=O)[nH]c12 | 16.5
69 | Oc1ccc2ccccc2c1C=NCc1cn2ccsc2n1 | 9.39
70 | Oc1cncc(Cc2ccccc2)c1 | 18.8
71 | CCOC(=O)c1cc(CC)sc1/N=C/C1C(=O)CC(C)(C)CC1=O | 17.4
72 | O=C(Cc1ccccc1)N1CCN(C2CCCC2)CC1 | 7.17
73 | O=C(CCN1CCc2ccccc2C1)Nc1ccc2c(c1)OCO2 | 0.913
74 | Cc1cc(C)nc(NC(=O)/C=C/c2ccc(Cl)cc2Cl)c1 | 9.93
75 | CCCCN1CNC(=S)N(c2cc(C)ccc2C)C1 | 7.21
76 | O=CNn1cnc2c(oc3nc(-c4ccccc4)cc(-c4ccco4)c32)c1=O | 12.5
77 | COc1ccc(CNC(=O)COC(=O)c2c(-c3c(F)cccc3Cl)noc2C)cc1OC | -2.97
78 | Cc1ccc(-c2cc(C(=O)NCCCN3CCOCC3)c3ccc(Cl)c(C)c3n2)cc1 | 1.2
79 | Cn1c(SCC(=O)N2CCCC2)nnc1-c1cnccn1 | 1.48
80 | CC(C)(CC(=O)O)CC(=O)Nc1ccc(Oc2ccc(C(C)(C)C)cc2)nc1 | 10.5
81 | Cc1ccccc1N=Nc1c(O)n(C)c2ccccc12 | 4.59
82 | COc1cc(-c2nnc3n(CCc4ccccc4)c(=O)c4ccccc4n23)cc(OC)c1OC | -0.301
83 | Cc1cc(-c2nnc(SCC(=O)Nc3ccccc3C)n2N)n[nH]1 | -3.03
84 | Cc1cccc(NC(=O)C2CC2c2ccccc2)c1C (stereo not drawn) | 12.1
85 | CN(c1ccc(OCc2ccc([N+](=O)[O-])cc2)cc1)S(=O)(=O)c1ccccc1 | 1.74
86 | CCOC(=O)c1c(S(=O)(=O)N2CCCCCC2)c(C)n(C)c1C | -0.322
87 | N#CCCn1c(Cl)nc2ccccc21 | 5.03

Source: article PMC4336329 (PLoS ONE, 2015)
